# Some of the results follow.
# What was measured:
# Test in all cases: glycan array binding signal (z-score within array); higher = stronger binding
# Details in all cases: glycan notation: IUPAC condensed, linker removed
# [1] = biological target: Gal(b1-4)GalNAc(b1-3)[Fuc(a1-2)]Gal(b1-4)GlcNAc
# Summary of the method: (§1)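 Glycan array data came from 3228 arrays in the Consortium for Functional Glycomics database, and only arrays with an available protein sequence were kept. Glycan names were put into IUPAC-condensed notation, and columns mapping to the same glycan were averaged. The binding signal is a within-array Z-score, averaged across arrays of one protein sequence run at different concentrations or buffers and across linkers. A negative Z-score can be read as non-binding.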
# Gal(b1-4)Glc = biological target: Gal(b1-4)Glc
# Summary of the method: as §1
# Gal(b1-4)Glc6S = biological target: Gal(b1-4)Glc6S
# Summary of the method: as §1
# Gal(b1-4)GlcNAc = biological target: Gal(b1-4)GlcNAc
# Summary of the method: as §1
# [2] = biological target: Gal(b1-4)GlcNAc(a1-6)Gal(b1-4)GlcNAc
# Summary of the method: as §1
# Gal(b1-4)GlcNAc(b1-2)Man = biological target: Gal(b1-4)GlcNAc(b1-2)Man
# Summary of the method: as §1
# [3] = biological target: Gal(b1-4)GlcNAc(b1-2)Man(a1-3)Man(b1-4)GlcNAc(b1-4)GlcNAc
# Summary of the method: as §1
# [4] = biological target: Gal(b1-4)GlcNAc(b1-2)Man(a1-3)[Gal(b1-4)GlcNAc(b1-2)Man(a1-6)]Man(b1-4)GlcNAc(b1-4)GlcNAc
# Summary of the method: as §1
# [5] = biological target: Gal(b1-4)GlcNAc(b1-2)Man(a1-3)[Gal(b1-4)GlcNAc(b1-2)Man(a1-6)]Man(b1-4)GlcNAc(b1-4)[Fuc(a1-6)]GlcNAc
# Summary of the method: as §1
# [6] = biological target: Gal(b1-4)GlcNAc(b1-2)Man(a1-3)[Gal(b1-4)GlcNAc(b1-2)Man(a1-6)][Gal(b1-4)GlcNAc(b1-4)]Man(b1-4)GlcNAc(b1-4)[Fuc(a1-6)]GlcNAc
# Summary of the method: as §1
# [7] = biological target: Gal(b1-4)GlcNAc(b1-2)Man(a1-3)[Gal(b1-4)GlcNAc(b1-2)Man(a1-6)][GlcNAc(b1-4)]Man(b1-4)GlcNAc(b1-4)[Fuc(a1-6)]GlcNAc
# Summary of the method: as §1
# [8] = biological target: Gal(b1-4)GlcNAc(b1-2)Man(a1-3)[GlcNAc(b1-2)Man(a1-6)]Man(b1-4)GlcNAc(b1-4)GlcNAc
# Summary of the method: as §1
# [9] = biological target: Gal(b1-4)GlcNAc(b1-2)Man(a1-3)[GlcNAc(b1-4)][Gal(b1-4)GlcNAc(b1-2)Man(a1-6)]Man(b1-4)GlcNAc(b1-4)GlcNAc
# Summary of the method: as §1
# [10] = biological target: Gal(b1-4)GlcNAc(b1-2)Man(a1-3)[Man(a1-6)]Man(b1-4)GlcNAc(b1-4)GlcNAc
# Summary of the method: as §1
# [11] = biological target: Gal(b1-4)GlcNAc(b1-2)Man(a1-6)Man(b1-4)GlcNAc(b1-4)GlcNAc
# Summary of the method: as §1
# [12] = biological target: Gal(b1-4)GlcNAc(b1-2)Man(a1-6)[GlcNAc(b1-2)Man(a1-3)]Man(b1-4)GlcNAc(b1-4)GlcNAc
# Summary of the method: as §1
# [13] = biological target: Gal(b1-4)GlcNAc(b1-2)Man(a1-6)[Man(a1-3)]Man(b1-4)GlcNAc(b1-4)GlcNAc
# Summary of the method: as §1
# [14] = biological target: Gal(b1-4)GlcNAc(b1-2)[Gal(b1-4)GlcNAc(b1-4)]Man(a1-3)[Gal(b1-4)GlcNAc(b1-2)Man(a1-6)]Man(b1-4)GlcNAc(b1-4)GlcNAc
# Summary of the method: as §1
# [15] = biological target: Gal(b1-4)GlcNAc(b1-2)[Gal(b1-4)GlcNAc(b1-4)]Man(a1-3)[Gal(b1-4)GlcNAc(b1-2)[Gal(b1-4)GlcNAc(b1-6)]Man(a1-6)]Man(b1-4)GlcNAc(b1-4)GlcNAc
# Summary of the method: as §1
# [16] = biological target: Gal(b1-4)GlcNAc(b1-2)[Gal(b1-4)GlcNAc(b1-4)]Man(a1-3)[GlcNAc(b1-4)][Gal(b1-4)GlcNAc(b1-2)Man(a1-6)]Man(b1-4)GlcNAc(b1-4)GlcNAc
# Summary of the method: as §1
# [17] = biological target: Gal(b1-4)GlcNAc(b1-2)[Gal(b1-4)GlcNAc(b1-4)]Man(a1-3)[GlcNAc(b1-4)][Gal(b1-4)GlcNAc(b1-2)[Gal(b1-4)GlcNAc(b1-6)]Man(a1-6)]Man(b1-4)GlcNAc(b1-4)GlcNAc
# Summary of the method: as §1
# [18] = biological target: Gal(b1-4)GlcNAc(b1-2)[Gal(b1-4)GlcNAc(b1-6)]Man(a1-6)[Gal(b1-4)GlcNAc(b1-2)Man(a1-3)]Man(b1-4)GlcNAc(b1-4)GlcNAc
# Summary of the method: as §1
binder,measurement,setting,value
Mg1lysM (Mycosphaerella graminicola) (protein) QRNPITITPQFDCGATNSQQYVARSGDTLTKIAQEIYHDVVGVCDIARANNLADPNRIDAGTPYTIPINCQTYDRNSCL,glycan array binding signal (z-score),[1],-0.075
same,glycan array binding signal (z-score),Gal(b1-4)Glc,-0.076
same,glycan array binding signal (z-score),Gal(b1-4)Glc6S,-0.057
same,glycan array binding signal (z-score),Gal(b1-4)GlcNAc,-0.068
same,glycan array binding signal (z-score),[2],-0.088
same,glycan array binding signal (z-score),Gal(b1-4)GlcNAc(b1-2)Man,-0.053
same,glycan array binding signal (z-score),[3],-0.089
same,glycan array binding signal (z-score),[4],-0.07
same,glycan array binding signal (z-score),[5],-0.039
same,glycan array binding signal (z-score),[6],-0.088
same,glycan array binding signal (z-score),[7],-0.065
same,glycan array binding signal (z-score),[8],-0.078
same,glycan array binding signal (z-score),[9],-0.077
same,glycan array binding signal (z-score),[10],-0.08
same,glycan array binding signal (z-score),[11],-0.083
same,glycan array binding signal (z-score),[12],-0.065
same,glycan array binding signal (z-score),[13],-0.084
same,glycan array binding signal (z-score),[14],-0.058
same,glycan array binding signal (z-score),[15],-0.116
same,glycan array binding signal (z-score),[16],-0.054
same,glycan array binding signal (z-score),[17],-0.087
same,glycan array binding signal (z-score),[18],-0.076
